Biological target: full-length human HSPA1B tagged at its C-terminus with 6 His residues (human, UniProt P0DMV9)
Test: pull-down

B1: GST-UBQLN2 P497H (natural protein)
chain: not shown
Does B1 bind?
Result: binds

B2: GST-P497S-UBQLN2 (natural protein)
chain: not shown
Does B2 bind?
Result: binds

B3: GST-UBQLN2 P506T (natural protein)
chain: not shown
Does B3 bind?
Result: binds

B4: GST-UBQLN2 P509S (natural protein)
chain: not shown
Does B4 bind?
Result: binds

B5: GST-UBQLN2 P525S (natural protein)
chain: not shown
Does B5 bind?
Result: binds

— PMC9792439 (Biochimica et biophysica acta. General subjects, 2022)
